PubChem BioAssay (NCI)
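Growth conditions: 96-well plates. Treatment: test compound, 48 hours, 5 concentrations. Analysis: linear interpolation between bracketing concentrations; unreached endpoints set to highest concentration. GI50 marks 50% less growth.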 The source holds more than one record for some entries. Only these are listed. There may be further records. A record mostly stands for its own series of concentrations, which the source does not state; a value can be the end of its range.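 Definition used: TGI = concentration required for complete inhibition of growth.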

What was measured:
Experiment in all cases: NCI tumour cell line growth inhibition, 48 h
NCI/ADR-RES ovarian = test system: NCI/ADR-RES ovarian
NCI-H522 lung = test system: NCI-H522 lung
SF-295 CNS = test system: SF-295 CNS
MDA-MB-435 = test system: MDA-MB-435
SF-268 CNS = test system: SF-268 CNS
HCC-2998 colon = test system: HCC-2998 colon
PC-3 prostate = test system: PC-3 prostate
HCT-116 colon = test system: HCT-116 colon
HT29 colon = test system: HT29 colon
RXF 393 renal = test system: RXF 393 renal
LOX IMVI melanoma = test system: LOX IMVI melanoma
MOLT-4 leukemia = test system: MOLT-4 leukemia
OVCAR-3 ovarian = test system: OVCAR-3 ovarian
UACC-62 melanoma = test system: UACC-62 melanoma
DU-145 prostate = test system: DU-145 prostate
HOP-92 NSCLC = test system: HOP-92 NSCLC
NCI-H460 lung = test system: NCI-H460 lung
U251 CNS = test system: U251 CNS
SNB-19 CNS = test system: SNB-19 CNS
BT-549 breast = test system: BT-549 breast
M14 melanoma = test system: M14 melanoma
HOP-62 NSCLC = test system: HOP-62 NSCLC
MALME-3M melanoma = test system: MALME-3M melanoma
UACC-257 melanoma = test system: UACC-257 melanoma
OVCAR-4 ovarian = test system: OVCAR-4 ovarian
COLO 205 colon = test system: COLO 205 colon
P388/ADR leukemia = test system: P388/ADR leukemia
EKVX NSCLC = test system: EKVX NSCLC
RPMI-8226 leukemia = test system: RPMI-8226 leukemia
A549 NSCLC = test system: A549 NSCLC
SNB-75 CNS = test system: SNB-75 CNS
ACHN renal = test system: ACHN renal
NCI-H226 lung = test system: NCI-H226 lung
KM12 colon = test system: KM12 colon
SK-MEL-5 melanoma = test system: SK-MEL-5 melanoma
OVCAR-8 ovarian = test system: OVCAR-8 ovarian
MDA-N = test system: MDA-N
TK-10 renal = test system: TK-10 renal
HL-60(TB) leukemia = test system: HL-60(TB) leukemia
SW-620 colon = test system: SW-620 colon
SF-539 CNS = test system: SF-539 CNS
NCI-H23 lung = test system: NCI-H23 lung
786-0 renal = test system: 786-0 renal
HS 578T breast = test system: HS 578T breast
CCRF-CEM leukemia = test system: CCRF-CEM leukemia
OVCAR-5 ovarian = test system: OVCAR-5 ovarian
A498 renal = test system: A498 renal
MDA-MB-231 breast = test system: MDA-MB-231 breast
SN12C renal = test system: SN12C renal

## CC(C)CCCCCCCCCCCCC(=O)NCC(=O)NC1C(O)C(O)C(Nc2ncnc3nc[nH]c23)OC1C(O)CO (stereo not drawn)
NCI/ADR-RES ovarian
  GI50: < 0.01 nM [1 test] and 5 nM [mean of 4 tests]
NCI-H522 lung
  GI50: < 0.01 nM [1 test] and 5 nM [mean of 2 tests]
  TGI: < 0.01 nM, 8.81 nM, 7.88 nM
SF-295 CNS
  GI50: < 0.01 nM [1 test] and 5 nM [mean of 3 tests]
  TGI: < 0.01 nM, 35.3 nM, 5.95 nM
MDA-MB-435
  TGI: 17.5 nM and 494 nM
SF-268 CNS
  GI50: < 0.01 nM [1 test] and 5 nM [mean of 2 tests]
  TGI: 0.0167 nM, 67.4 nM, 38.1 nM
HCC-2998 colon
  TGI: 0.446 nM and 4.79 nM
PC-3 prostate
  TGI: 13.6 nM and 376 nM
HCT-116 colon
  GI50: < 0.01 nM [1 test] and 5 nM [mean of 2 tests]
  TGI: 0.129 nM, 25.1 nM, 6.91 nM
HT29 colon
  GI50: < 0.01 nM [1 test] and 5 nM [mean of 2 tests]
RXF 393 renal
  TGI: < 0.01 nM and 13.5 nM
LOX IMVI melanoma
  GI50: < 0.01 nM and 15.1 nM
  TGI: < 0.01 nM, 35.6 nM, 2.59 µM
MOLT-4 leukemia
  GI50: < 0.01 nM [1 test] and 5 nM [mean of 4 tests]
OVCAR-3 ovarian
  GI50: < 0.01 nM [1 test] and 5 nM [mean of 4 tests]
UACC-62 melanoma
  TGI: < 0.01 nM and 3.48 nM
DU-145 prostate
  TGI: 0.0119 nM and 447 nM
HOP-92 NSCLC
  TGI: < 0.01 nM and 1.77 nM
NCI-H460 lung
  GI50: < 0.01 nM [1 test] and 5 nM [mean of 4 tests]
  TGI: 1.05 nM, 14.8 nM, 7.34 nM
U251 CNS
  GI50: < 0.01 nM [1 test] and 5 nM [mean of 3 tests]
  TGI: < 0.01 nM, 7.3 nM, 7.39 nM
SNB-19 CNS
  GI50: < 0.01 nM [1 test] and 5 nM [mean of 3 tests]
BT-549 breast
  TGI: 6.61 nM and 515 nM
M14 melanoma
  TGI: 4.11 nM and 334 nM
HOP-62 NSCLC
  TGI: < 0.01 nM and 3.35 nM
MALME-3M melanoma
  GI50: < 0.01 nM [1 test] and 5 nM [mean of 4 tests]
UACC-257 melanoma
  GI50: < 0.01 nM [1 test] and 5 nM [mean of 3 tests]
  TGI: < 0.01 nM, 14.7 nM, 10.3 nM
OVCAR-4 ovarian
  TGI: 0.0426 nM and 26.7 nM
COLO 205 colon
  GI50: < 0.01 nM [1 test] and 5 nM [mean of 3 tests] and 0.643 nM [mean of 5 tests]
P388/ADR leukemia
  TGI: < 18.8 nM and 15.9 µM
EKVX NSCLC
  GI50: < 0.01 nM [1 test] and 5 nM [mean of 3 tests]
RPMI-8226 leukemia
  GI50: < 0.01 nM [1 test] and 5 nM [mean of 3 tests]
  TGI: 2.21 nM, 2.49 nM, 108 nM
A549 NSCLC
  GI50: < 0.01 nM [1 test] and 5 nM [mean of 4 tests] and 0.463 nM [mean of 5 tests]
SNB-75 CNS
  TGI: < 0.01 nM and 3.66 nM
ACHN renal
  TGI: 1.69 nM and 608 nM
NCI-H226 lung
  GI50: < 0.01 nM [1 test] and 5 nM [mean of 3 tests]
  TGI: < 0.01 nM, 10.5 nM, 5.8 nM
KM12 colon
  GI50: < 0.01 nM [1 test] and 5 nM [mean of 3 tests]
SK-MEL-5 melanoma
  GI50: < 0.01 nM [1 test] and 5 nM [mean of 3 tests]
  TGI: 2.06 nM, 23.1 nM, 13.2 nM
OVCAR-8 ovarian
  GI50: < 0.01 nM [1 test] and 5 nM [mean of 4 tests]
  TGI: 1.09 nM, 52.6 nM, 10.9 nM
MDA-N
  TGI: 22.8 nM and 564 nM
TK-10 renal
  TGI: 2.26 nM and 508 nM
HL-60(TB) leukemia
  GI50: < 0.01 nM [1 test] and 5 nM [mean of 3 tests]
  TGI: 1.63 nM and 50 nM
SW-620 colon
  TGI: 9.69 nM [mean of 3 tests] and 103 nM [mean of 5 tests]
SF-539 CNS
  GI50: < 0.01 nM [1 test] and 5 nM [mean of 3 tests]
  TGI: < 0.01 nM, < 20.8 nM, 6.06 nM

## COc1cc(C(=O)c2cnc(-c3cccc4[nH]ccc34)[nH]2)cc(OC)c1OC
NCI-H23 lung
  GI50: 180 nM and < 10 nM
786-0 renal
  GI50: 134 nM and < 10 nM
SF-268 CNS
  GI50: 158 nM and < 10 nM
HS 578T breast
  GI50: 480 nM and < 10 nM
HCC-2998 colon
  GI50: 189 nM and < 10 nM
CCRF-CEM leukemia
  GI50: 234 nM and < 10 nM
OVCAR-5 ovarian
  GI50: 444 nM and < 10 nM
LOX IMVI melanoma
  GI50: 350 nM and < 10 nM
MOLT-4 leukemia
  GI50: 300 nM and < 10 nM
OVCAR-3 ovarian
  TGI: 212 nM and < 10 nM
A498 renal
  TGI: 965 nM and 29.5 µM
BT-549 breast
  GI50: 186 nM and < 10 nM
MDA-MB-231 breast
  GI50: 163 nM and < 10 nM
M14 melanoma
  TGI: 951 nM and > 100 µM
COLO 205 colon
  GI50: 134 nM and < 10 nM
EKVX NSCLC
  GI50: 198 nM and < 10 nM
RPMI-8226 leukemia
  GI50: 447 nM and < 10 nM
A549 NSCLC
  GI50: 139 nM and < 10 nM
SN12C renal
  GI50: 135 nM and < 10 nM
ACHN renal
  GI50: 392 nM and < 10 nM
OVCAR-8 ovarian
  GI50: 159 nM and < 10 nM
SW-620 colon
  GI50: 143 nM and < 10 nM
SF-539 CNS
  TGI: 106 nM and < 10 nM
